The values that follow come from the supplement of paper PMC10369915.

Some of the results follow. No stated cut-off is given here; in the data, active = 3.2 or more and inactive = the rest. The signal is at background level for most entries.
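Further: displayed peptides selected on beads carrying the immobilized SH2 domain, with library peptides lacking any tyrosine serving as negative controls.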

The target of the first test is SHP2 C-SH2 domain E139D. As to the kind of experiment: enrichment score (SH2-bound / input frequency) (ratio); bacterial display of known human phosphotyrosine sites (pTyr-Var adds point mutants) read by sequencing; higher = stronger binding; tyrosines were phosphorylated by kinases first. The conditions noted are these: peptide library: pTyr-Var.
As to PSELFYSKISP [SMG1_Y2254_G2258S_YF], the enrichment score was inactive: 1.46.
Consider KHMADYPDCKF [SOX11_Y113_Y116C_YF], for which the enrichment score was inactive: 0.894.
Turning to LAAPKYKLNVD [SMARCA2_Y1190_A1188P], the enrichment score was inactive: 0.852.
Consider SRVTQYERNFE [SNX1_Y463_D466N], for which the enrichment score is inactive: 0.864.
For VARAVYQAVLS [SMG1_Y549_H546R], the enrichment score is inactive: 0.684.
With GRLVEYDIDEV [SMS_Y134], the enrichment score was inactive: 0.923.
Consider SRVTQYERDFE [SNX1_Y463], for which the enrichment score was inactive: 0.625.
As for ERSMSYCDESR [SMG1_Y143_S144C], the enrichment score was inactive: 0.491.
For the molecule DFKIIYIAPMR [SNRNP200_Y540], the enrichment score was inactive: 1.7.
For the molecule KDHPDYKYQRR [SOX10_Y171_P175R], the enrichment score is inactive: 1.04.
On to IWDLKYTIENP [SND1_Y178_R174W], for which the enrichment score is inactive: 1.33.
Still for that read-out and setting: under KDHPDYKYPPR [SOX10_Y171_Q174P] stands inactive: 0.732; under IRDLKYTIENP [SND1_Y178], inactive: 1.02; under KPLMPCMRFSR [SMARCE1_Y73_Y73C_YF], inactive: 0.352.
Turning to DVYVSYDCGKS [SORL1_Y139_Y141C], the enrichment score was inactive: 0.667.
Same read-out and setting: as for KSSDVYVSFDC [SORL1_Y136_Y141C_YF], the figure is inactive: 0.931.
As for LAAAKYKLNVD [SMARCA2_Y1190], the enrichment score was inactive: 0.709.
Take KPLMPYMRYSR [SMARCE1_Y73]: the enrichment score was inactive: 0.213.

Another test concerns the target SHP2 C-SH2 domain wild-type. The test is described as above. To be noted: peptide library: pTyr-Var.
As to PSELFYSKISP [SMG1_Y2254_G2258S_YF], the enrichment score was inactive: 2.61.
Consider KHMADYPDCKF [SOX11_Y113_Y116C_YF], for which the enrichment score was inactive: 1.2.
As to LAAPKYKLNVD [SMARCA2_Y1190_A1188P], the enrichment score is inactive: 0.494.
On the same count and under the same terms, as for SRVTQYERNFE [SNX1_Y463_D466N], the figure is inactive: 0.726; as for VARAVYQAVLS [SMG1_Y549_H546R], inactive: 0.864.
On the same count and under the same terms, as for GRLVEYDIDEV [SMS_Y134], the figure is inactive: 0.981; as for SRVTQYERDFE [SNX1_Y463], inactive: 0.624; as for ERSMSYCDESR [SMG1_Y143_S144C], inactive: 0.508.
In the case of DFKIIYIAPMR [SNRNP200_Y540], the enrichment score is inactive: 1.44.
For the molecule KDHPDYKYQRR [SOX10_Y171_P175R], the enrichment score is inactive: 0.956.
As to IWDLKYTIENP [SND1_Y178_R174W], the enrichment score was inactive: 1.27.
In the case of KDHPDYKYPPR [SOX10_Y171_Q174P], the enrichment score is inactive: 0.695.
Consider IRDLKYTIENP [SND1_Y178], for which the enrichment score is inactive: 1.09.
On the same count and under the same terms, as for KPLMPCMRFSR [SMARCE1_Y73_Y73C_YF], the figure is inactive: 0.254; as for DVYVSYDCGKS [SORL1_Y139_Y141C], inactive: 0.723; as for KSSDVYVSFDC [SORL1_Y136_Y141C_YF], inactive: 1.18.
On to LAAAKYKLNVD [SMARCA2_Y1190], for which the enrichment score is inactive: 0.737.
In the case of KPLMPYMRYSR [SMARCE1_Y73], the enrichment score was inactive: 0.188.

Another test concerns the target SHP2 N-SH2 domain L43F. The description is as above. The conditions noted are these: peptide library: pTyr-Var.
For the molecule PSELFYSKISP [SMG1_Y2254_G2258S_YF], the enrichment score was inactive: 1.76.
For the molecule KHMADYPDCKF [SOX11_Y113_Y116C_YF], the enrichment score is inactive: 1.01.
With LAAPKYKLNVD [SMARCA2_Y1190_A1188P], the enrichment score is inactive: 0.943.
In the case of SRVTQYERNFE [SNX1_Y463_D466N], the enrichment score is inactive: 0.719.
Still for that read-out and setting: under VARAVYQAVLS [SMG1_Y549_H546R] stands inactive: 0.572; under GRLVEYDIDEV [SMS_Y134], inactive: 0.965.
Regarding SRVTQYERDFE [SNX1_Y463], the enrichment score was inactive: 0.697.
As for ERSMSYCDESR [SMG1_Y143_S144C], the enrichment score is inactive: 0.555.
Same read-out and setting: as for DFKIIYIAPMR [SNRNP200_Y540], the figure is inactive: 1.24; as for KDHPDYKYQRR [SOX10_Y171_P175R], inactive: 1.05.
In the case of IWDLKYTIENP [SND1_Y178_R174W], the enrichment score is inactive: 1.33.
On to KDHPDYKYPPR [SOX10_Y171_Q174P], for which the enrichment score is inactive: 0.71.
With IRDLKYTIENP [SND1_Y178], the enrichment score was inactive: 1.17.
For KPLMPCMRFSR [SMARCE1_Y73_Y73C_YF], the enrichment score is inactive: 0.248.
Turning to DVYVSYDCGKS [SORL1_Y139_Y141C], the enrichment score is inactive: 0.761.
Still for that read-out and setting: under KSSDVYVSFDC [SORL1_Y136_Y141C_YF] stands inactive: 0.923; under LAAAKYKLNVD [SMARCA2_Y1190], inactive: 0.758.
The same measure, in the same setting: under KPLMPYMRYSR [SMARCE1_Y73] stands inactive: 0.234.

In another test the target is SHP2 N-SH2 domain T42A. The test is described as above. To be noted: peptide library: pTyr-Var.
Turning to PSELFYSKISP [SMG1_Y2254_G2258S_YF], the enrichment score was inactive: 1.86.
For KHMADYPDCKF [SOX11_Y113_Y116C_YF], the enrichment score is inactive: 0.94.
As to LAAPKYKLNVD [SMARCA2_Y1190_A1188P], the enrichment score is inactive: 0.837.
In the case of SRVTQYERNFE [SNX1_Y463_D466N], the enrichment score is inactive: 0.743.
As for VARAVYQAVLS [SMG1_Y549_H546R], the enrichment score was inactive: 1.19.
For GRLVEYDIDEV [SMS_Y134], the enrichment score was inactive: 0.766.
Still for that read-out and setting: under SRVTQYERDFE [SNX1_Y463] stands inactive: 0.555; under ERSMSYCDESR [SMG1_Y143_S144C], inactive: 0.564; under DFKIIYIAPMR [SNRNP200_Y540], inactive: 1.62.
In the case of KDHPDYKYQRR [SOX10_Y171_P175R], the enrichment score is inactive: 0.964.
Consider IWDLKYTIENP [SND1_Y178_R174W], for which the enrichment score was inactive: 1.32.
The same measure, in the same setting: as for KDHPDYKYPPR [SOX10_Y171_Q174P], the figure is inactive: 0.717; as for IRDLKYTIENP [SND1_Y178], inactive: 0.788; as for KPLMPCMRFSR [SMARCE1_Y73_Y73C_YF], inactive: 0.263.
DVYVSYDCGKS [SORL1_Y139_Y141C]: the enrichment score is inactive: 0.598.
On to KSSDVYVSFDC [SORL1_Y136_Y141C_YF], for which the enrichment score is inactive: 0.952.
Take LAAAKYKLNVD [SMARCA2_Y1190]: the enrichment score was inactive: 0.515.
For KPLMPYMRYSR [SMARCE1_Y73], the enrichment score was inactive: 0.278.

The next test deals with SHP2 N-SH2 domain T52S. The test is described as above. To be noted: peptide library: pTyr-Var.
PSELFYSKISP [SMG1_Y2254_G2258S_YF]: the enrichment score is inactive: 1.7.
Take KHMADYPDCKF [SOX11_Y113_Y116C_YF]: the enrichment score was inactive: 0.934.
Still for that read-out and setting: as for LAAPKYKLNVD [SMARCA2_Y1190_A1188P], the figure is inactive: 0.572; as for SRVTQYERNFE [SNX1_Y463_D466N], inactive: 0.69.
For the molecule VARAVYQAVLS [SMG1_Y549_H546R], the enrichment score is inactive: 0.631.
On to GRLVEYDIDEV [SMS_Y134], for which the enrichment score was inactive: 0.876.
The same measure, in the same setting: as for SRVTQYERDFE [SNX1_Y463], the figure is inactive: 0.651; as for ERSMSYCDESR [SMG1_Y143_S144C], inactive: 0.591; as for DFKIIYIAPMR [SNRNP200_Y540], inactive: 1.27.
Consider KDHPDYKYQRR [SOX10_Y171_P175R], for which the enrichment score is inactive: 1.17.
As to IWDLKYTIENP [SND1_Y178_R174W], the enrichment score is inactive: 1.15.
On to KDHPDYKYPPR [SOX10_Y171_Q174P], for which the enrichment score was inactive: 0.754.
As for IRDLKYTIENP [SND1_Y178], the enrichment score is inactive: 0.65.
Take KPLMPCMRFSR [SMARCE1_Y73_Y73C_YF]: the enrichment score is inactive: 0.25.
DVYVSYDCGKS [SORL1_Y139_Y141C]: the enrichment score is inactive: 0.577.
Still for that read-out and setting: as for KSSDVYVSFDC [SORL1_Y136_Y141C_YF], the figure is inactive: 0.944; as for LAAAKYKLNVD [SMARCA2_Y1190], inactive: 0.768.
Consider KPLMPYMRYSR [SMARCE1_Y73], for which the enrichment score is inactive: 0.225.

The next test addresses SHP2 N-SH2 domain wild-type. The description is as above. The conditions noted are these: peptide library: pTyr-Var.
As for PSELFYSKISP [SMG1_Y2254_G2258S_YF], the enrichment score is inactive: 0.658.
As to KHMADYPDCKF [SOX11_Y113_Y116C_YF], the enrichment score was inactive: 1.3.
As to LAAPKYKLNVD [SMARCA2_Y1190_A1188P], the enrichment score is inactive: 0.762.
For the molecule SRVTQYERNFE [SNX1_Y463_D466N], the enrichment score is inactive: 0.861.
Turning to VARAVYQAVLS [SMG1_Y549_H546R], the enrichment score is inactive: 1.07.
As for GRLVEYDIDEV [SMS_Y134], the enrichment score is inactive: 1.08.
For the molecule SRVTQYERDFE [SNX1_Y463], the enrichment score was inactive: 0.592.
Consider ERSMSYCDESR [SMG1_Y143_S144C], for which the enrichment score was inactive: 0.446.
On to DFKIIYIAPMR [SNRNP200_Y540], for which the enrichment score was inactive: 1.44.
Consider KDHPDYKYQRR [SOX10_Y171_P175R], for which the enrichment score is inactive: 1.16.
For the molecule IWDLKYTIENP [SND1_Y178_R174W], the enrichment score is inactive: 1.92.
Still for that read-out and setting: under KDHPDYKYPPR [SOX10_Y171_Q174P] stands inactive: 0.863; under IRDLKYTIENP [SND1_Y178], inactive: 1.19; under KPLMPCMRFSR [SMARCE1_Y73_Y73C_YF], inactive: 0.308.
Turning to DVYVSYDCGKS [SORL1_Y139_Y141C], the enrichment score is inactive: 0.84.
With KSSDVYVSFDC [SORL1_Y136_Y141C_YF], the enrichment score is inactive: 1.19.
On to LAAAKYKLNVD [SMARCA2_Y1190], for which the enrichment score is inactive: 0.867.
Consider KPLMPYMRYSR [SMARCE1_Y73], for which the enrichment score was inactive: 0.352.
